From PubChem BioAssay AID624417 (National Center for Advancing Translational Sciences (NCATS), 2012)
Hit rate of the full screen: of about 410,000 compounds, about 6,400 (1.6%) were called active. Inconclusive results, whose numbers are uncertain, are shown with a selection of clear calls. Calls follow the shape of the dose curve; as a rule, active = well fitted inhibition curve with a large enough effect; inconclusive = small, poorly fitted or top-dose-only effect; inactive = no such curve, though single readings can be large or run the other way. Where the call is inconclusive, the potency comes from a doubtful curve fit.

Target: Glucagon-like peptide 1 receptor (Homo sapiens) (UniProt P43220)
Assay: qHTS of GLP-1 Receptor Inverse Agonists (Inhibition Mode); also: nearly all actives have a fitted effect of over 55% in size
Details: HEK293 GLP-1R CRE-luciferase, luminescence, 24 h, GLP-1R form is constitutively active; series mostly up to 38.3 µM
Summary of the method: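 Seeding at 200 cells/uL, 12 h culture, 24 hr compound treatment, then luciferase reagent and a luminescence read; cells are HEK293 stably expressing a constitutively active GLP-1R plus cAMP-responsive luciferase.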
Potency is read from the fitted curve at half-maximal effect; tags tell the direction and shape of the fitted curve.

UniProt P43220, sequence (P43220 whole entry, looked up): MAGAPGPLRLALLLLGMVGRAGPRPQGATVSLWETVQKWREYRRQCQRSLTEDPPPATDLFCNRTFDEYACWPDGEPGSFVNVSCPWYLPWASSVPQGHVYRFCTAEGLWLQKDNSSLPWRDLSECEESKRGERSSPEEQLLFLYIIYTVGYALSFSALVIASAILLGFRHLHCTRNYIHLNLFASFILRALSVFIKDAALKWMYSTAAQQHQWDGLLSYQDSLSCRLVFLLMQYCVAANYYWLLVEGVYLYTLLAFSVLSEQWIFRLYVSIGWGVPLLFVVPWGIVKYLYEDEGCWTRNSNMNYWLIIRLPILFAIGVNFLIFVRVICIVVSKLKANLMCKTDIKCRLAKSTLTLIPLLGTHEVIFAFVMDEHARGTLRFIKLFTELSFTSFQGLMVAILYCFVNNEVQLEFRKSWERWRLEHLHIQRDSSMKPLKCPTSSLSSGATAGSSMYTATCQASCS

Potency, active:
CC(=O)NC1=C(Nc2ccc(N(C)C)cc2)C(=O)c2ccccc2C1=O 3.98 µM

Potency, inconclusive:
CC(C)(C)N1C(=O)[C@H]2[C@@H](c3ccc(Br)cc3)N3C(=O)N(c4cccc(Cl)c4)C(=O)[C@@]3(C)[C@H]2C1=O 8.91 µM [inhibitor, partial curve, poor fit]
Cn1c(C(=O)O)c(CC(=O)Nc2ccc3c(c2)OCCO3)c2ccccc21 5.01 µM [inhibitor, full curve, poor fit]
COc1ccc(C(=O)C(OC(=O)c2ccccc2)c2ccccc2)cc1 (stereo unspecified) 12.6 µM [inhibitor, single point]
COc1ccc(N2CCN(C(=O)c3cccc(N4C(=O)C5CC=CC(C)C5C4=O)c3)CC2)cc1 (stereo unspecified) 25.1 µM [inhibitor, single point]
C=CCc1ccccc1OCCCCN1CCCC1 22.4 µM [inhibitor, single point]
Cc1ccc(NC(=O)c2ncn(CCCN(CCCn3cnc(C(=O)Nc4ccc(C)c(C)c4)n3)Cc3ccc4[nH]ccc4c3)n2)cc1C 28.2 µM [inhibitor, single point]
CC(/C=C/c1ccccc1)=N/NC(=O)c1cccc(Br)c1 14.1 µM [inhibitor, partial curve, poor fit]
COc1ccc(-c2nn(-c3ccccc3)cc2CN(C)CCn2ccnc2C)c(F)c1 14.1 µM [inhibitor, partial curve, poor fit]
C=CCc1ccc(OCCCCNC(C)CC)c(OC)c1 (stereo unspecified) 3.55 µM [inhibitor, partial curve, poor fit]
CN(C)c1ccc(/C=C/c2ccc3ccccc3[n+]2C)cc1 2.24 µM [inhibitor, partial curve, poor fit]
CCOC(=O)C1=C(C)N=C2SC(C(=O)OC)=CC(=O)N2C1c1cccc(OC)c1 (stereo unspecified) 11.2 µM [inhibitor, partial curve, poor fit]
Clc1ccc(CSCCc2ccncc2)cc1 12.6 µM [inhibitor, single point]
COc1ccccc1N1CCN(C(=O)c2sc3ncnc(N4CCN(c5ccccn5)CC4)c3c2C)CC1 10 µM [inhibitor, partial curve, poor fit]
C[C@@H]1CCCCO[C@H](CN(C)Cc2ccccc2)[C@@H](C)CN([C@H](C)CO)C(=O)c2cc(NS(=O)(=O)c3ccc(Cl)cc3)ccc2O1 28.2 µM [inhibitor, single point]
COc1ccc(C(CC(=O)Nc2cc(OC)cc(OC)c2)n2cccc2)cc1 (stereo unspecified) 14.1 µM [inhibitor, single point]
Cc1cccc(CSc2ncc(CO)n2Cc2ccc(F)cc2)c1 10 µM [inhibitor, partial curve, poor fit]
O=[N+]([O-])c1cc(S(=O)(=O)Nc2cccc(C(F)(F)F)c2)ccc1-n1nnc2ccccc21 22.4 µM [inhibitor, single point]
O=C(Nc1ccc2ccccc2c1)c1ccccc1F 12.6 µM [inhibitor, single point]
Cc1ccc2nc(-c3cccnc3)cc(C(=O)N3CCN(c4ccc([N+](=O)[O-])cc4)CC3)c2c1 0.501 µM [inhibitor, full curve, poor fit]
CC(C)(C)C1CCC(C(=O)NCC(c2cccs2)N2CCOCC2)CC1 (stereo unspecified) 11.2 µM [inhibitor, partial curve, poor fit]
COc1ccc2[nH]c(C)c(CCNc3ccc(C(F)(F)F)cc3[N+](=O)[O-])c2c1 28.2 µM [inhibitor, single point]
CN(C)C(CNC1CC(C)(C)NC(C)(C)C1)c1cccc(F)c1 (stereo unspecified) 12.6 µM [inhibitor, single point]
CC(C)(C)n1nnnc1C(CCc1ccccc1)N1CCN(C/C=C/c2ccccc2)CC1 (stereo unspecified) 28.2 µM [inhibitor, single point]
CCOC(=O)c1c(SCCN2CCCC2)n(-c2ccccc2)c(=S)n(-c2ccccc2)c1=O 8.91 µM [inhibitor, partial curve]
O=C(CCCOc1ccc(Cl)cc1Cl)Nc1ccccc1C(=O)O 6.31 µM [inhibitor, partial curve, poor fit]
O=C(Nc1ccccc1N1CCCC1)c1ccccc1F 28.2 µM [inhibitor, single point]
CC1(C)CC2CC(C)(CN2C(=O)c2cc(-c3ccccc3O)on2)C1 (stereo unspecified) 6.31 µM [inhibitor, partial curve, poor fit]
Cc1ccc(NNc2c(C)nc3ccccc3nc2=O)cc1 31.6 µM [inhibitor, single point]
Clc1ccc(N/N=C/c2cccnc2)cc1 3.98 µM [inhibitor, full curve]
COc1ccccc1C1CC(c2ccc(Cl)cc2)Nc2ncnn21 (stereo unspecified) 8.91 µM [inhibitor, partial curve, poor fit]
Cc1cc(C(=O)Nc2ccc(Cl)c(S(=O)(=O)N3CCOCC3)c2)c2ccccc2n1 10 µM [inhibitor, partial curve, poor fit]
O=C(c1cc(-c2ccc(Cl)cc2Cl)on1)N1CCOCC1 7.08 µM [inhibitor, partial curve, poor fit]
Cc1ccc(O)c(C(CC(=O)NCC2(c3ccccc3)CCCC2)c2ccccc2)c1 (stereo unspecified) 14.1 µM [inhibitor, single point]
CCC(=O)c1cc(Br)ccc1OCC(=O)N1CCN(S(=O)(=O)c2ccccc2)CC1 10 µM [inhibitor, partial curve]
CCS(=O)(=O)Nc1cccc(C2=NN(S(=O)(=O)c3ccccc3)C(c3ccco3)C2)c1 (stereo unspecified) 22.4 µM [inhibitor, single point]
O=c1oc2cc(Cl)ccc2n1CSc1nc2ccccc2s1 28.2 µM [inhibitor, single point]
COc1ccc(OC)c(NC(=O)Cc2coc3ccc(C(C)C)cc23)c1 28.2 µM [inhibitor, single point]
Cc1cc(C)c2nc(-c3ccncc3)cc(C(=O)N3CCN(Cc4ccccc4Cl)CC3)c2c1 6.31 µM [inhibitor, partial curve, poor fit]
CC(=O)Nc1ccc(S(=O)(=O)N(Cc2ccccc2)C(C)C)cc1 5.01 µM [inhibitor, partial curve]
CN1CCN(CC(=O)Nc2ccc(Cl)cc2Cl)CC1 0.316 µM [inhibitor, full curve, poor fit]
COC(=O)c1c(C)oc2ccc(N(C(=O)c3ccncc3)S(=O)(=O)c3ccc(C)cc3C)cc12 10 µM [inhibitor, partial curve, poor fit]
CCc1cccc(-n2c(C)nc3c(cnn3-c3ccc(Cl)cc3)c2=O)c1 6.31 µM [inhibitor, partial curve, poor fit]
O=C(Nc1ccccc1N1CCOCC1)C1(c2ccc(Cl)cc2)CCC1 3.55 µM [inhibitor, partial curve, poor fit]
CCN(Cc1ccccc1)S(=O)(=O)CCNC(=O)c1ccc(OC)cc1 11.2 µM [inhibitor, partial curve, poor fit]
CC(=O)N1CCOc2cc(S(=O)(=O)Nc3cccc(C(F)(F)F)c3)c(Cl)cc21 14.1 µM [inhibitor, single point]
Cc1cccc2cc(-c3nc4c(C)cccn4c3NCc3ccco3)c(=O)[nH]c12 7.94 µM [inhibitor, partial curve]
CCCCC(OC(=O)CN1C(=O)COc2ccccc21)C(=O)NC1CCCCC1 (stereo unspecified) 28.2 µM [inhibitor, single point]

Potency, inactive:
Cc1cc(C)c2c(=O)cc(C(=O)Nc3sc4c(c3C(=O)NCc3ccccc3)CCCC4)oc2c1
COc1ccc(NC(=O)CSc2ncc3c(n2)-c2cc(Cl)ccc2N(Cc2ccccc2F)S3(=O)=O)cc1
CC(C)N1CCOC1c1ccccc1 (stereo unspecified)
O=C1c2cccc3c(N4CCCCC4)ccc(c23)C(=O)N1c1ccc(O)cc1
C[C@@H]1[C@H](O)C[C@@]23COC(=O)C2=CCC[C@@H]3[C@@]1(C)CC/C(=C/CO)CO
Cc1ccc2c(c1)-c1nc(-c3ccc(Cl)cc3)cc(-c3coc4ccccc4c3=O)c1CO2
COc1ccc(/C=N/N=C2/NC(=O)C(CC(=O)O)S2)cc1OCc1ccc(Cl)cc1 (stereo unspecified)
COc1ccc(-c2cc(C(F)F)n3ncc(C(=O)N4CCN(C(=O)c5ccco5)CC4)c3n2)cc1
CCOc1ccc(CNC(=O)C2CCN(c3nnc(-n4cccc4CNc4ccc(C)cc4)s3)CC2)cc1OC
O=C(NC1CCCCC1)C(c1ccc(-c2ccccc2)cc1)n1c(=O)c(-c2ccco2)nc2ccccc21 (stereo unspecified)
CCOC(=O)c1[nH]c(C)c(CCC(=O)NCc2ccccc2)c1C
O=c1c2ccccc2[nH]c2ccc(F)cc12
O=C(NCC1CCCCC1)c1ccc(F)cc1Cl
